Assay results from patent publication US20260250398A1 (ANTLERA THERAPEUTICS, published 2026).

Molecular target: T1, LRP6 (low-density lipoprotein receptor-related protein 6) (UniProt O75581 20-1370, limits assumed)
T1 sequence (looked up): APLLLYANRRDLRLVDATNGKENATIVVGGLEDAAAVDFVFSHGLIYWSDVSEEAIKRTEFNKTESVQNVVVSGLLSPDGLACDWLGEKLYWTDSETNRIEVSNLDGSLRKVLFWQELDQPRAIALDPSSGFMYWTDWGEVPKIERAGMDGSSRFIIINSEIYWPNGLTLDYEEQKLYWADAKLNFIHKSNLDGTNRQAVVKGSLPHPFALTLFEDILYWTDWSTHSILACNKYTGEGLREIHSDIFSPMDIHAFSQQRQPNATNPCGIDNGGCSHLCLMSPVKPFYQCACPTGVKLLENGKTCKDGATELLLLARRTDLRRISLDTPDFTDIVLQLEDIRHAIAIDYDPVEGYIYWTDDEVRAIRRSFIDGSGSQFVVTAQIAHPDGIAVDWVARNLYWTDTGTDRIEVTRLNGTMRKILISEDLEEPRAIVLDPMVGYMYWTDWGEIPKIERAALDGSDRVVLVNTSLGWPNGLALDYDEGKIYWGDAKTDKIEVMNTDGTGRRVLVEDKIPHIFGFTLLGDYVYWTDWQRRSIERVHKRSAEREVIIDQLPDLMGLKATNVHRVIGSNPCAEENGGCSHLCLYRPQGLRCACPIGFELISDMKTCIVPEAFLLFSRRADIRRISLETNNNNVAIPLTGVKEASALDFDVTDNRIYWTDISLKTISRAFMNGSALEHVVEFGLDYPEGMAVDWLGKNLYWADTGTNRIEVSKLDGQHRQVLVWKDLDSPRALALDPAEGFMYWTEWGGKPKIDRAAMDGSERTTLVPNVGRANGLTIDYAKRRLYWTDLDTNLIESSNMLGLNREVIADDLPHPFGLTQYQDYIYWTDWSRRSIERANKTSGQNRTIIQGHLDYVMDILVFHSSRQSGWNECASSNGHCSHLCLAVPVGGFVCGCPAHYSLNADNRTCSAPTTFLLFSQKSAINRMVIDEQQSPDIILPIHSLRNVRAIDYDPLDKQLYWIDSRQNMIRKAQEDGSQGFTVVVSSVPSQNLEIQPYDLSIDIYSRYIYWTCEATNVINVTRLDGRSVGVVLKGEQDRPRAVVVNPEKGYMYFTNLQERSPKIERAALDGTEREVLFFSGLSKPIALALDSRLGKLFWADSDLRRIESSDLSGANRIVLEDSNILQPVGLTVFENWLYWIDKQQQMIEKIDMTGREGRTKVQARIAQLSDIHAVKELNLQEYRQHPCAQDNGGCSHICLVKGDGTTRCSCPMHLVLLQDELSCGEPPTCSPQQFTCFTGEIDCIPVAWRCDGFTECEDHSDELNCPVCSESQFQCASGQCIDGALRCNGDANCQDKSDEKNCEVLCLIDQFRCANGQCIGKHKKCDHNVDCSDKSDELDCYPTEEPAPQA
Test: cell-based or functional assay

- TOPFLASH % Wnt Maxima: 33 % Wnt Maxima
B1: CM0042 (FZD Diabody-Fc-LRP Diabody; paratopes 5019; 2539) (bispecific antibody)
chain: MNLLLILTFVAAAVAEFEVQLVESGGGLVQPGGSLRLSCAASGFNIGSSSIHWVRQAPGKGLEWVASIYSAFASTSYADSVKGRFTISADTSKNTAYLQMNSLRAEDTAVYYCARYHFPFGFALDYWGQGTLVTVSSGGGGSDIQMTQSPSSLSASVGDRVTITCRASQSVSSAVAWYQQKPGKAPKLLIYSASSLYSGVPSRFSGSRSGTDFTLTISSLQPEDFATYYCQQGVYLFTFGQGTKVEIKLEDKTHTKV[sequence of human IgG1 Fc with C220S (EU numbers) not given]SGSETPGTSESATPESGGGEVQLVESGGGLVQPGGSLRLSCAASGFNISYSSIHWVRQAPGKGLEWVAYISSYYGYTYYADSVKGRFTISADTSKNTAYLQMNSLRAEDTAVYYCARAHYFPWAGAMDYWGQGTLVTVSSGGGGSDIQMTQSPSSLSASVGDRVTITCRASQSVSSAVAWYQQKPGKAPKLLIYSASSLYSGVPSRFSGSRSGTDFTLTISSLQPEDFATYYCQQYSWGPFTFGQGTKVEIK
